From PubChem BioAssay AID1745853 (National Center for Advancing Translational Sciences (NCATS), 2022)
Where “and” joins values, the source holds several entries; their conditions need not be identical. Identical values can stand only once. Some of the results follow. Further columns of the screen follow, without active or inactive calls.

Legend:
Experiment in all cases: Primary Screen for Target Class Profiling of Small Molecule Inhibitors of Methyltransferases
[1] = target: Glycine N-methyltransferase (Homo sapiens) (UniProt Q14749); conditions: purified enzyme, MTase-Glo SAH luminescence; measured here: GNMT inhibition; at 40 µM; stronger effect = lower value
How it was run: (§1)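 Each enzyme was assayed with SAM and its substrate. SAH formation detected by MTase-Glo luminescence; single-point 40 uM screen[…].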

[2] = target: Guanidinoacetate N-methyltransferase (Homo sapiens) (UniProt Q14353); conditions: purified enzyme, MTase-Glo SAH luminescence; measured here: GAMT inhibition; at 40 µM; stronger effect = lower value
How it was run: as §1

[3] = target: Histamine N-methyltransferase (Homo sapiens) (UniProt P50135); conditions: purified enzyme, MTase-Glo SAH luminescence; measured here: HNMT inhibition; at 40 µM; stronger effect = lower value
How it was run: as §1

[4] = target: Nicotinamide N-methyltransferase (Homo sapiens) (UniProt P40261); conditions: purified enzyme, MTase-Glo SAH luminescence; measured here: NNMT inhibition; at 40 µM; stronger effect = lower value
How it was run: as §1

[5] = target: Phenylethanolamine N-methyltransferase (Homo sapiens) (UniProt P11086); conditions: purified enzyme, MTase-Glo SAH luminescence; measured here: PNMT inhibition; at 40 µM; stronger effect = lower value
How it was run: as §1
% is scaled to controls: 0 for no effect and ±100 for the full control effect.

Row | Structure (SMILES) | activity change, negative = inhibition [1] | activity change, negative = inhibition [2] [%] | activity change, negative = inhibition [3] | activity change, negative = inhibition [4] [%] | activity change, negative = inhibition [5] [%]
1 | Cn1cncc1CN1CCC2(CCN(C3CCOCC3)CC2)C(CO)C1 (stereo not given) | -1.66% | 0.924 | -0.496% | -1.55 | 12.4
2 | Cc1nc(C)c(C(=O)N2CCCC(c3nn(C)c(=O)n3C(C)C)C2)s1 (stereo not given) | -3.74% | -12 | -5.26% | -11 | -10.4
3 | O=C1CCCCCN1C1CCN(Cc2ccsc2)CC1 | -3.96% | -3.48 | -2.29% | -6.94 | -6.11
4 | CCCn1c(=O)c2ccc(C(=O)NC(C)C)cc2n2c(SCC(N)=O)nnc12 | 2.49% | 4.37 | 5.22% | -3.03 | 2.19
5 | CCCN1C(=O)c2c(C(=O)NCc3cccc(OC)c3)ncn2CC1(C)C(=O)NCCC(C)C (stereo not given) | 1.34% | 1.48 | 2.8% | 4.5 | 3.93
6 | CCc1cc2c(cc3n2CC(C)(C(=O)NC2CCCCC2)N(CCc2ccccc2)C3=O)s1 (stereo not given) | -4.29% | 2.45 | 3.24% | 4.56 | -3.13
7 | CC(C)Cn1c(=O)c2ccc(C(=O)NC(C)C)cc2n2c(=O)n(Cc3ccccc3Cl)nc12 | 3% | 4.8 | 6.18% | -2.68 | 3.69
8 | CCCS(=O)(=O)N1Cc2c(ncn2Cc2ccc(Cl)cc2)C[C@H]1C(=O)OC | -2.07% | -1.29 | 1.62% | -2.61 | 1.27
9 | COc1ccc(OC)c(CCNC(=O)CCc2nnc3n(CCC(C)C)c(=O)c4ccccc4n23)c1 | -14.7% | 1.98 | -0.776% | -21.5 | 0.431
10 | CCCn1c(=O)c2cc(F)ccc2n2c(SCC(=O)Nc3cccc(C)c3)nnc12 | 1.84% | 2.68 | 13.1% | 3.83 | 5.48
11 | O=C(CCCc1nnc2n3nc(-c4ccccc4)nc3c3ccccc3n12)N1CCN(C2CCCCC2)CC1 | -7.36% | 1.81 | -27.4% | 0.165 | -3.53
12 | Cc1ccc(CCC(=O)N2C[C@@H](CN3CCOCC3)[C@@H](CO)C2)cc1 | -0.246% | -0.767 | 0.198% | -0.159 | -3.31
13 | O=C1CC2CCN([S+](=O)([O-])c3cccs3)CC2CCN1 (stereo not given) | -7.7% | -0.736 | 1.26% | -5.87 | -3.42
14 | O=C(CCCN1CCC(O)(c2ccc(Cl)cc2)CC1)c1ccc(F)cc1 | 4.15% | 11.8 | 7.4% | -8.97 | -4.18
15 | COCc1cc([C@H]2N[C@@](C)(C(=O)OC)[C@H]3C(=O)N(C)C(=O)[C@@H]23)ccc1OC | -1.79% | -3.29 | -1.93% | -1.38 | 1.7
16 | O=C1CN(Cc2ccccc2F)S(=O)(=O)c2ccccc2N1Cc1ccc(Cl)cc1 | 7.34% | 0.54 | 3.3% | -3.3 | 3.29
17 | CCN1CCN(C(=O)c2ccc3nc(-c4cccc(C)n4)oc3c2)CC1 | -11.7% | -11.2 | -7.42% | -18.2 | -15.3
18 | CC(=O)N1c2ccc(-c3ccc(C(=O)O)cc3)cc2C(Nc2ccc(Cl)cc2)CC1C (stereo not given) | -26.6% and -1.69% |  | -10.1% and 3.84% | -29.6 | 12.3
19 | COc1ccc(-c2n[nH]n3c2nc(=O)c2ccc(C(=O)NCc4ccc(OC)cc4OC)cc23)cc1 | -13.2% | 3.74 | -1.51% | -3.56 | -2.14
20 | CCOC(=O)CC1(NC(=O)N2Cc3c(sc4c3CCCC4)-n3cccc3C2CC)CCCCC1 (stereo not given) | -8.98% | 0 | 5.95% | -7.14 | -13.4

Row | Structure (SMILES) | activity change, negative = inhibition [1] | activity change, negative = inhibition [2] [%] | activity change, negative = inhibition [3] | activity change, negative = inhibition [4] [%] | activity change, negative = inhibition [5] [%]
21 | C=CCN1CCc2c(cc(O)c(O)c2Cl)C(c2ccccc2)C1 (stereo not given) | -39.7% | -0.537 | -24.4% | -14.1 | -0.068
22 | CSc1cccc(NS(=O)(=O)c2ccc3[nH]c4c(c3c2)CCCC4)c1 | 1.99% | 1.54 | 1.75% | -9.43 | 2.25
23 | O=C(O)C[C@H](O)C[C@H](O)/C=C/c1c(C2CC2)nc2ccccc2c1-c1ccc(F)cc1 | -13.3% | 6.84 | 7% | -33.6 | 5.92
24 | CCOC(=O)c1cc2n(n1)CC(C)(C(=O)NCc1ccccc1)N(Cc1cccc(CC)c1)C2=O (stereo not given) | -1.68% | 0.867 | 0.937% | 9.88 | -1.65
25 | CC1=C(C(=O)O)N2C(=O)[C@@H](NC(=O)C(N)C3=CCC=CC3)[C@H]2SC1 (stereo not given in full) | -14.1% | 7.92 | 2.35% | -0.033 | 8.32
26 | O=C(Cn1nc2n(Cc3ccccc3)c(=O)c3ccccc3n2c1=O)NC1CCCCC1 | 5.8% | 1.25 | 4.76% | -0.225 | 5.04
27 | CC(CNC(=O)Cn1ccc2cc(S(=O)(=O)N3CCCC3)ccc21)c1ccccc1 (stereo not given) | -0.14% | 1.71 | -6.94% | -4.42 | -18
28 | Cc1noc(CN(C)c2ncnc3ccc(-c4ccc5c(c4)OCO5)cc23)n1 |  | -22.7 |  | -47.6 | -49
29 | COc1ccc(OC)c(CCNC(=O)CCc2nnc3n(Cc4ccccc4Cl)c(=O)c4ccccc4n23)c1 | -3.98% | 3.91 | 1.73% | -5.68 | -2.51
30 | C=C1/C(=C/C=C2\CCC[C@]3(C)[C@@H]([C@@H](C)OCCC(O)(CC)CC)CC[C@@H]23)C[C@@H](O)C[C@@H]1O | -6.04% | 8.47 | 3.52% | -11.8 | -0.626
31 | Cc1cc(C)cc(Nc2nc(C)cc(=O)n2CC(=O)Nc2cccc(C(F)(F)F)c2)c1 | -11.2% | -1.67 | 0.621% | -3.33 | -2.92
32 | CCc1cc2c(cc3n2CC(C)(C(=O)NC2CCCCC2)N(CCCN2CCCCC2C)C3=O)s1 (stereo not given) | 5.13% | -0.307 | 4.75% | 14.4 | 4.1
33 | CSc1nc(N)cc(Oc2ccc(-c3nc(Nc4cccc(C(F)(F)F)c4)n[nH]3)cc2)n1 |  | 11.7 |  | -18 | 1.57
34 | COC(C)c1nc(C2CCOCC2)nn1Cc1ccc2c(c1)OCO2 (stereo not given) | -6.18% | -8.05 | -4.02% | -6.73 | -9.53
35 | Oc1ccc(C2CNCc3sccc32)cc1O (stereo not given) | -75.9% | 4.71 | -19.6% | -5.56 | 5.81
36 | COc1ccc(-c2nc3c(c(=O)[nH]2)CCN(C(=O)c2ccccc2)C3)cc1 | -8.08% | -7.54 | -2.42% | -12.7 | -7.36
37 | CCN1C(=O)c2cc3ccccc3n2CC1(C)C(=O)NCC(=O)NCc1ccccc1C (stereo not given) | -8.89% | 2.29 | -4.22% | -8.82 | -9.25
38 | COc1ccc(Cl)cc1S(=O)(=O)NC1COc2c(cccc2OC)C1 (stereo not given) | -4.82% | 3.47 | 4.83% | -1.15 | 0.435
39 | Cc1noc(C)c1[S+](=O)([O-])N1CCn2c(nn(-c3ccc(C(F)(F)F)cc3)c2=O)C1 | -5.8% | -4.36 | -1.38% | -6.9 | -54.8
40 | Cn1nc(C(=O)N2CCC3(CC2)CC(Cc2nc(C4CC4)no2)CCO3)c2ccccc21 (stereo not given) | -5.53% | 3.56 | -0.69% | 0.317 | 14.4

Row | Structure (SMILES) | activity change, negative = inhibition [1] | activity change, negative = inhibition [2] [%] | activity change, negative = inhibition [3] | activity change, negative = inhibition [4] [%] | activity change, negative = inhibition [5] [%]
41 | CCCCN1C(=O)c2cc(C(=O)Nc3ccc(C(C)C)cc3)nn2CC1(C)C(=O)NC1CCCC1 (stereo not given) | -0.744% | 4.91 | -7.68% | -2.23 | 0.494
42 | C/C=C/C=C/C=C/C(=O)N(C)C(C(=O)NC(C)C(=O)N1CCCC1C(N)=O)C(C)C (stereo not given) | 0% | 5.68 | 9.64% | -4.83 | -4.77
43 | O=C(O)Cc1nn(Cc2nc3cc(C(F)(F)F)ccc3s2)c(=O)c2nccnc12 | -7.31% | -7.9 | 10.6% | -13.7 | 1.63
44 | CC(C)OCCCn1c(=O)c2ccccc2n2c(=O)n(CC(=O)Nc3cccc(F)c3)nc12 | 4.51% | 1.97 | 8.35% | 3.29 | 7.03
45 | CCc1ccccc1N1C(=O)N(Cc2cc(=O)n3ccccc3n2)c2ccccc2S1(=O)=O |  | -4.25 |  | -19.2 | -3.04
46 | CC1=C(/C=C/C(C)=C\C=C\C(C)=C/C(=O)O)C(C)(C)CCC1 | -30.4% |  | -1.85% |  | 
47 | COCC(=O)N1CCN(C(C)=O)C[C@@H]1C(=O)N[C@H](C)C(=O)OC | -6.47% | -8.1 | -3.13% | -11.8 | -4.55
48 | CN1C(=O)c2cc(C(=O)NCc3ccccn3)nn2CC1(C)C(=O)NCc1ccccc1 (stereo not given) | 4.55% | 4.15 | 4.07% | 0.027 | 1.31
49 | CCCn1c(=O)c2ccc(C(=O)NC3CCCC3)cc2n2c(=O)n(CC(=O)Nc3cc(C)cc(C)c3)nc12 | 5.31% | 0.547 | 7.17% | 6.5 | 7.28
50 | COC(=O)c1ncn2c1C(=O)N(CCCc1ccccc1)C(C)(C(=O)NC1CCCCCC1)C2 (stereo not given) | 6.75% | 1.16 | 4.1% | 7.69 | 4.61
51 | CC(CNC(=O)CCn1ccc2cc(S(=O)(=O)N3CCCCC3)ccc21)c1ccccc1 (stereo not given) | -2.86% | 7.08 | -8.25% | 1.46 | 0.55
52 | CC(=O)N1CCCC1c1nc(C2CN(Cc3cc(F)c(F)cc3F)C2)no1 (stereo not given) | -4.38% | -0.303 | -2.51% | -4.14 | -7.36
53 | CC1(C(=O)NC2CCCCCC2)Cn2nc(-c3ccco3)cc2C(=O)N1CCCc1ccccc1 (stereo not given) | -2.85% | 3.74 | -0.101% | -1.78 | -6.19
54 | CN1CCC(CNc2ccc3ncc(-c4cccc(OC(F)(F)F)c4)n3n2)CC1 | -69.1% | -39.9 | -80.1% | -66.1 | -68.8
55 | COc1ccc(-c2nc(C)nc3c2CCN([S+](=O)([O-])c2cccc(OC)c2)CC3)cc1 | -11.7% | -5.89 | -0.755% | -12.7 | -5.76
56 | Cc1ccc(S(=O)(=O)N2CCC3(CC2)SCC(=O)N3Cc2ccco2)cc1 | -13.3% | -5.31 | -5.55% | -7.33 | -3.65
57 | COc1ccc(NC(=O)Cn2nc3n(CCC(C)C)c(=O)c4ccccc4n3c2=O)cc1OC | -4.39% | 0.553 | 4.68% | -4.03 | -0.905
58 | COCCCN1C(=O)c2ccccc2CC1(C)C(=O)NC1CCCCCCC1 (stereo not given) | -1.37% | 0.35 | 10.3% | 6.45 | 5.07
59 | COC(=O)COc1ccc2c(=O)c(-c3ccc4c(c3)OCCO4)coc2c1 | -4.91% | -0.08 | -4.57% | -3.17 | -4.17
60 | C[C@@H]1O[C@@H](O[C@@H]2[C@@H](O)[C@@H](O)[C@H](O[C@@H]3[C@@H](O)[C@@H](O[C@]4(CO)O[C@H](CO)[C@@H](O)[C@@H]4OC(=O)/C=C/c4ccc(O)cc4)O[C@H](CO)[C@H]3OC(=O)/C=C/c3ccc(O)cc3)O[C@H]2C)[C@H](O)[C@H](O)[C@H]1O | 0% | 0.49 | -0.641% | -11.5 | 2.61
